Measurements as given in PubChem BioAssay AID1347165 (National Center for Advancing Translational Sciences (NCATS), 2019).
Hit rate of the full screen: of about 220,000 compounds, about 5,700 (2.6%) were called active. The inconclusive results got no clear call from the source; some entries with a clear call stand among them for comparison. Calls follow the shape of the dose curve; as a rule, active = well fitted inhibition curve with a large enough effect; inconclusive = small, poorly fitted or top-dose-only effect; inactive = no such curve, though single readings can be large or run the other way. Potencies of inconclusive entries are doubtful fits and often do not repeat.

The molecules below were run against Lysine-specific demethylase 5B (Homo sapiens) (UniProt Q9UGL1) (assay: Primary screen for KDM5B Histone Demethylases FDH-coupled qHTS). Details: FDH-coupled NADH fluorescence (FDH is formaldehyde dehydrogenase); series mostly up to 57.7 µM.
UniProt Q9UGL1, sequence (Q9UGL1 whole entry, looked up, the tested form may be a part): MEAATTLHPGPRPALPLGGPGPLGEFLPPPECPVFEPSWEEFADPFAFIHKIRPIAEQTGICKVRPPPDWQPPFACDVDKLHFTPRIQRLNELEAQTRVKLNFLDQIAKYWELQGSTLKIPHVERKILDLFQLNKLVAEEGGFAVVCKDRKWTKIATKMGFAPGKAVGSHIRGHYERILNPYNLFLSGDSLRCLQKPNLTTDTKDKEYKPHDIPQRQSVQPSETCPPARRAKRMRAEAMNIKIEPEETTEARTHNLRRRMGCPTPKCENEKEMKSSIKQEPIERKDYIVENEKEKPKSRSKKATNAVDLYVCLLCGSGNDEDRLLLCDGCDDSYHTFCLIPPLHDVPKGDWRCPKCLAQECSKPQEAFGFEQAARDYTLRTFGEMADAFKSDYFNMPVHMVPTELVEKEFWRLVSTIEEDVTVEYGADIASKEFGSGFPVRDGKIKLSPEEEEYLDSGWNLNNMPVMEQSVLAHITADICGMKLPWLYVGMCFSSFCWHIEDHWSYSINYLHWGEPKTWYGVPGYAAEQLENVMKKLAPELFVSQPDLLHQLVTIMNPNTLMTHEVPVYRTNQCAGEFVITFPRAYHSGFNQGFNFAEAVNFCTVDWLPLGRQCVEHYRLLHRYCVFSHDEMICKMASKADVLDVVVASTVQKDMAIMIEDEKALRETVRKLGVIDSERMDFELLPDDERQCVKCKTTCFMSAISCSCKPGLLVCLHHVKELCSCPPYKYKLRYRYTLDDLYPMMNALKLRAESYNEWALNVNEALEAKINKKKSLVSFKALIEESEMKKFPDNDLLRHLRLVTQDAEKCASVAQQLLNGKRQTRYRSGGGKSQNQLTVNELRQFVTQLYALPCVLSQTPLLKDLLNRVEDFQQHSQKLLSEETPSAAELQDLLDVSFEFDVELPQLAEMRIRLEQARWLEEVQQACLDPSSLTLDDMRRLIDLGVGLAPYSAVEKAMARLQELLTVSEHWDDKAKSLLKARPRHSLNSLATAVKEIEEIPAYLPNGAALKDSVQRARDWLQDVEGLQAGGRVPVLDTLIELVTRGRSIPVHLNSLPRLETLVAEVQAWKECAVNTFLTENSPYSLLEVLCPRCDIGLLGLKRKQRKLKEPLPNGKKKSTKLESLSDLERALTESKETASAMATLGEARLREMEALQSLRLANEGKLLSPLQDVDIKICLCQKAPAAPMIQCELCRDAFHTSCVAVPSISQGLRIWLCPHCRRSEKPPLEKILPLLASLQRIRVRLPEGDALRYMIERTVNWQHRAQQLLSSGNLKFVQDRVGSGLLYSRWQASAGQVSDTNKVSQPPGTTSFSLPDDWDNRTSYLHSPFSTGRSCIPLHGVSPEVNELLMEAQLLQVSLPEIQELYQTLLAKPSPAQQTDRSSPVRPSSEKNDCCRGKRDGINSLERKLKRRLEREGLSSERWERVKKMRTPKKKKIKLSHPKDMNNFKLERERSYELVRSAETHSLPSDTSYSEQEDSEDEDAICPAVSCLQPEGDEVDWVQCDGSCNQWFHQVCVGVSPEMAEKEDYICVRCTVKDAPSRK
In short: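 Inhibition is measured as reduced NADH fluorescence generation from FDH coupling to formaldehyde release. Truncated KDM5BΔAP at 200 nM final acts on H3K4me3 peptide (12.5 µM in substrate mix) in pH 7.5 HEPES buffer with Tween-20, 30 min, room temperature.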
Also: nearly all actives have a fitted effect of over 70% in size.
Potency is read from the fitted curve at half-maximal effect; tags tell the direction and shape of the fitted curve.

Row | SMILES | Potency
1 | COc1ccc(-c2nc(N(C)Cc3ccco3)c3ccccc3n2)cc1 | inconclusive: 25.1 µM [inhibitor, partial curve, poor fit]
2 | COc1ccc(CNC(=O)c2cc3c(s2)CN(C2CC2)C3)cc1OC | active: 11.2 µM
3 | COCc1nnc2n1CCC(NC(=O)CCc1nc3ccccc3s1)CC2 (stereo not drawn) | inconclusive: 35.5 µM [inhibitor, partial curve, poor fit]
4 | COCCN1C(=O)c2cccn2CC1CNC(=O)c1ccc(Cc2c(C)noc2C)o1 (stereo not drawn) | inactive
5 | Cc1cc(NC(=O)N2CC=C(c3c[nH]c4ccccc34)CC2)ccc1Br | inconclusive: 25.1 µM [inhibitor, partial curve, poor fit]
6 | O=C(Cn1c(=O)n(-c2ccc(F)cc2)c(=O)c2sc3ccccc3c21)N1CCCC1 | inconclusive: 31.6 µM [inhibitor, partial curve, poor fit]
7 | Cc1cc(C)cc(C(=O)N2CCCN(S(C)(=O)=O)c3ccccc32)c1 | inactive
8 | Cn1nc(C(=O)NCc2ccccc2)c2c1-c1ccccc1SC2 | inconclusive: 28.2 µM [inhibitor, partial curve, poor fit]
9 | Cc1ccc(CSC2=Nc3ccccc3C3=NC(CCC(=O)N4CCN(c5ccccc5)CC4)C(=O)N23)cc1 (stereo not drawn) | inconclusive: 28.2 µM [inhibitor, partial curve, poor fit]
10 | CS(=O)(=O)NC[C@H]1O[C@@H](CC(=O)N2CCN(c3ccccn3)CC2)[C@H](O)[C@@H]1O | active: 35.5 µM
11 | CC(=O)c1ccc(NC(=O)CSC2=NS(=O)(=O)c3ccc(C)cc3N2)cc1 | inconclusive: 39.8 µM [inhibitor, single point]
12 | Cc1nc2ccccc2n1CCC(=O)N1CCc2[nH]cnc2C1C(=O)O (stereo not drawn) | inconclusive: 15.8 µM [inhibitor, partial curve]
13 | COCCN1C(=O)c2ccccc2C(C(=O)Nc2cc(OC)cc(OC)c2)C12CCCC2 (stereo not drawn) | inconclusive: 14.1 µM [inhibitor, partial curve]
14 | N#Cc1ccc(-c2ccc(OCC(O)CN3CCCCC3)cc2)cc1 (stereo not drawn) | inconclusive: 25.1 µM [inhibitor, partial curve, poor fit]
15 | O=C(/C(=C/c1ccncc1)n1ccnc1)c1ccc(Cl)cc1Cl | inconclusive: 28.2 µM [inhibitor, partial curve, poor fit]
16 | Oc1cccc2[nH]ncc12 | inconclusive: 25.1 µM [inhibitor, single point]
17 | COc1cccc(/C=N/NC(=O)C(=O)N2CCCCCC2)c1O | inconclusive: 12.6 µM [inhibitor, partial curve, poor fit]
18 | N#Cc1nc(-c2ccc([N+](=O)[O-])cc2)oc1NCCN1CCOCC1 | inactive
19 | COC(=O)c1sc2nc(CN3CCc4ccccc4C3)[nH]c(=O)c2c1C | inconclusive: 11.2 µM [inhibitor, partial curve, poor fit]
20 | O=c1c2nc(-c3ccc(Cl)cc3)ccc2ncn1Cc1ccccn1 | active: 35.5 µM
21 | CC1C(=O)CCN(CCO)C1C (stereo not drawn) | inactive

Row | SMILES | Potency
22 | CCOc1ccc(-c2oc3ccccc3c(=O)c2O)cc1OCC | inconclusive: 31.6 µM [inhibitor, partial curve, poor fit]
23 | O=C1c2cnc(-c3cc(F)cc(F)c3)nc2OCCN1Cc1ccccc1 | inconclusive: 15.8 µM [inhibitor, partial curve, poor fit]
24 | Cc1ccsc1/C=N/NC(=O)c1ccc2ccccc2c1 | inconclusive: 10 µM [inhibitor, partial curve, poor fit]
25 | COc1ccc(CCNC(=O)c2ccc3c(c2)N(C)C2CCCCN2C3=O)cc1OC (stereo not drawn) | inconclusive: 25.1 µM [inhibitor, partial curve, poor fit]
26 | COc1cc(OC)cc(C(=O)Nc2cc3nn(-c4ccccc4)nc3cc2Cl)c1 | inconclusive: 2.51 µM [inhibitor, partial curve, poor fit]
27 | CNC(=O)c1cc(-c2ccccc2C)cc2c1OCCN2Cc1cccnc1 | inconclusive: 31.6 µM [inhibitor, partial curve, poor fit]
28 | Cc1ccccc1C1=Nn2c(nnc2-c2ccco2)SC1 | inconclusive: 39.8 µM [inhibitor, single point]
29 | O=C1N[C@H](CCC(=O)N2CCC(c3nnc4ccccn34)CC2)C(=O)Nc2ccccc21 | inconclusive: 10 µM [inhibitor, partial curve, poor fit]
30 | O=C(CSc1nnnn1C1CCCC1)NC(c1ccc(F)cc1)c1cccs1 (stereo not drawn) | inactive
31 | CN(CCc1ccccn1)[C@@H]1[C@H](O)[C@H](CO)O[C@@H]1CNC(=O)c1ccc(C(F)(F)F)cc1 | inconclusive: 28.2 µM [inhibitor, partial curve, poor fit]
32 | O=C(O)Cn1ccc2cc(OCCc3cccc(-c4cncnc4)c3)cnc21 | active: 28.2 µM
33 | S=C(NCCc1ccccc1)NC1CCCC1 | inactive
34 | CC(C)Oc1ccc(C(=O)N2CCCCC2CCN2CCOCC2)cc1 (stereo not drawn) | inactive
35 | COC(=O)c1ccc(C2Nc3c(C)cc(C)cc3C3C=CCC32)cc1 (stereo not drawn) | inconclusive: 8.91 µM [inhibitor, partial curve, poor fit]
36 | COc1ccc(C(CNC(=O)COc2ccc(C)c(C)c2)N2CCCCC2)cc1 (stereo not drawn) | inactive
37 | COc1ccc(CN(C(=O)c2cc3ccccc3s2)C2CC2)cc1 | inactive
38 | C=CCNC(=O)N[C@H]1[C@H](O)[C@@H](N2CCC(Cc3ccccc3)CC2)[C@@H]2OC[C@H]1O2 | inconclusive: 11.2 µM [inhibitor, partial curve]
39 | CN(C)c1ccc(CN2CCNc3cc(-c4ccccc4)ncc3C2)cc1 | inconclusive: 31.6 µM [inhibitor, single point]
40 | Fc1ccccc1CSCc1ccc(-c2nc(-c3ccccc3)no2)o1 | inactive
41 | Brc1ccc(-c2ccnc3nc(-c4cccs4)nn23)s1 | inconclusive: 25.1 µM [inhibitor, partial curve]
42 | COc1cccc(/C=C(\C#N)c2nc3ccccc3o2)c1 | inconclusive: 17.8 µM [inhibitor, partial curve, poor fit]

Row | SMILES | Potency
43 | CNc1ccc(-c2noc([C@@H]3CCCN3Cc3cccnc3)n2)cn1 | inactive
44 | O=c1oc2cc(O)ccc2cc1-c1nc(-c2ccc3ccccc3c2)cs1 | inconclusive: 31.6 µM [inhibitor, partial curve, poor fit]
45 | CNc1nc2c(c(C(=O)N3CCCC3)n1)CN(CCC(C)c1ccc(C)o1)CC2 (stereo not drawn) | inconclusive: 28.2 µM [inhibitor, single point]
46 | CCCCCNc1c2c(nc3ccccc13)CC(C)(C)CC2=O | inconclusive: 12.6 µM [inhibitor, partial curve, poor fit]
47 | N#CC1=C(N)Oc2c(c(=O)[nH]c3ccccc23)C1c1ccc(F)cc1 (stereo not drawn) | inconclusive: 14.1 µM [inhibitor, partial curve, poor fit]
48 | COCCC1(C(=O)O)CCCN(C(=O)c2cc(F)ccc2OC)C1 (stereo not drawn) | inactive
49 | COc1ccc(NC(=O)Cn2c(CCC(=O)O)ccc2-c2ccccc2)cc1Cl | inconclusive: 15.8 µM [inhibitor, partial curve, poor fit]
50 | Cc1ccc(C)c(Cn2c(CN3CCN(Cc4ccccc4)CC3)nc3c2c(=O)[nH]c(=O)n3C)c1 | inactive
51 | Cc1nc(C(=O)NC2CCN(c3ncccc3C#N)CC2)cs1 | active: 28.2 µM
52 | CCOc1ccc(CNS(=O)(=O)c2ccc3[nH]c4c(c3c2)CCCC4)cc1OC | inconclusive: 25.1 µM [inhibitor, single point]
53 | CC1CCN(C(=O)C[C@@H]2c3nc(NC(=O)c4cccc(F)c4)sc3C[C@@H]3[C@](C)(CO)[C@H](O)CC[C@]32C)CC1 | inconclusive: 25.1 µM [inhibitor, single point]
54 | Cc1ccc2nc(CO[C@H]3CN(C4CCC4)C[C@H]3F)[nH]c2c1 | inconclusive: 28.2 µM [inhibitor, single point]
55 | Cc1ccc(C)c(OCCOc2ccc3ccc(=O)oc3c2)c1 | inconclusive: 39.8 µM [inhibitor, partial curve, poor fit]
56 | COCCNC(=S)N[C@H]1C[C@H]2C(=O)NC[C@@H](CCC(=O)NCc3ccccc3)N2C1 | inconclusive: 28.2 µM [inhibitor, partial curve, poor fit]
57 | CC(=O)N[C@H]1CO[C@H]2[C@@H]1OC[C@@H]2Nc1nccc(C2CCCC2)n1 | inconclusive: 39.8 µM [inhibitor, partial curve, poor fit]
58 | CC1CCCN(S(=O)(=O)c2ccc3c(c2)n(C)c(=O)c(=O)n3C)C1 (stereo not drawn) | inconclusive: 39.8 µM [inhibitor, single point]
59 | COc1ccc2oc(=O)cc(CN3CCN(C(=O)c4ccccc4F)CC3)c2c1 | inconclusive: 39.8 µM [inhibitor, single point]
60 | CC(C)CNC(=O)c1ccc(C2Nc3cc(C(F)(F)F)ccc3S(=O)(=O)N2)cc1 (stereo not drawn) | inconclusive: 22.4 µM [inhibitor, partial curve, poor fit]
61 | O=C(NCCc1cccc2ccccc12)c1ccc2ccccc2n1 | inconclusive: 39.8 µM [inhibitor, single point]
62 | CC(C)NC(=O)/C(=C/c1ccc(-c2cccc(C(F)(F)F)c2)o1)NC(=O)c1ccccc1 | inconclusive: 2 µM [inhibitor, partial curve, poor fit]
63 | O=C(CC12CC3CC(CC(C3)C1)C2)Nc1ccc(-c2nc3ccccc3o2)cc1 | inconclusive: 2.24 µM [inhibitor, full curve, poor fit]
